Reference: US20060088522A1, “Humanized anti-5T4 antibodies and anti-5T4/calicheamicin conjugates” (Wyeth, priority 2004, published 2006)

Target: T1, human 5T4 antigen (Homo sapiens, UniProt Q13641)
T1 sequence (Q13641 32-420): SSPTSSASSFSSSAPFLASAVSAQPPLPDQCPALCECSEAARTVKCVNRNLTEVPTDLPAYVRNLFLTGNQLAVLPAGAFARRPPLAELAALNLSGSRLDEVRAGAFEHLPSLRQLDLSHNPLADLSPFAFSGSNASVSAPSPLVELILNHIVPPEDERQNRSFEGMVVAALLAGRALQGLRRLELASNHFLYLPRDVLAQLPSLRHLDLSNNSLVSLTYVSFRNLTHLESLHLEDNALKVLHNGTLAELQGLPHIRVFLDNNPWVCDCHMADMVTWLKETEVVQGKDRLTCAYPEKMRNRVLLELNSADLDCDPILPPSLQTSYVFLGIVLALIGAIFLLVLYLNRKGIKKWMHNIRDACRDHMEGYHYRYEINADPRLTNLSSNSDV
Assay: BIACORE analysis (surface plasmon resonance), 5T4 immobilized on CM5 chip
Assay type: binding
Protocol: To assess the binding specificity and affinity of chimeric and humanized H8 antibodies, BIACORE® analysis was performed using human 5T4 antigen immobilized on a CM5 chip. BIACORE® technology utilizes changes in the refractive index at the surface layer upon binding of the antibody to the 5T4 antigen immobilized on the layer. Binding is detected by surface plasmon resonance (SPR) of laser light refracting from the surface. Analysis of the signal kinetics on rate and off rate allows the discrimination between non-specific and specific interaction. The concentration of antibody used was in the range of 12.5 nM to 200 nM. Chimeric, semi-humanized, and humanized H8 antibodies performed similarly to the murine H8 antibody in the BIACORE® assay.
The binding kinetics of murine H8, humanized H8, and humanized H8 calicheamicin conjugate were compared by plasmon resonance, essentially as described in Example 2. The conjugate sample contained 61 μg CalichDMH per mg protein, 1% free antibody, and 1.4% aggregate.

B1: Humanized H8 version 1: humanized H8 heavy chain variable region version 1 and light chain variable region version 1 (antibody)
heavy: QVQLVQSGAEVKKPGASVKVSCKASGYSFTGYYMHWVKQSPGQGLEWIGRINPNNGVTLYNQKFKDRVTMTRDTSISTAYMELSRLRSDDTAVYYCARSTMITNYVMDYWGQGTLVTVSSASTKGPSVFPLAPCSRSTSESTAALGCLVKDYFPEPVTVSWNSGALTSGVHTFPAVLQSSGLYSLSSVVTVPSSSLGTKTYTCNVDHKPSNTKVDKRV[human IgG4 Fc with S228P (EU numbers) not written out]
light: DIVMTQSPDSLAVSLGERATINCKASQSVSNDVAWYQQKPGQSPKLLISYTSSRYAGVPDRFSGSGSGTDFTLTISSLQAEDVAVYFCQQDYNSPPTFGGGTKLEIKRTVAAPSVFIFPPSDEQLKSGTASVVCLLNNFYPREAKVQWKVDNALQSGNSQESVTEQDSKDSTYSLSSTLTLSKADYEKHKVYACEVTHQGLSSPVTKSFNRGEC
- kd (Table 8, off rate): 7.8e-05 s⁻¹
- ka (Table 8, on rate): 90000 M⁻¹ s⁻¹
